{
  "source": "the supplement of paper PMC8728848",
  "test_in_all_cases": "glycan array binding signal (z-score within array); higher = stronger binding",
  "details_in_all_cases": "glycan notation: IUPAC condensed, linker removed",
  "key": {"[1]": {"molecular_target": "Gal(b1-4)GlcNAc(b1-6)GalNAc", "procedure,_shortened": "(§1)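 Glycan array data were curated from 3228 arrays in the Consortium for Functional Glycomics database and kept only where the protein sequence was available. Glycan names were converted to IUPAC-condensed notation, and columns mapping to the same glycan were averaged. The binding signal is a within-array Z-score, averaged across arrays of the same protein sequence at different concentrations or buffers and across linkers. Negative Z-scores can be read as non-binding.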"}, "[2]": {"molecular_target": "Gal(b1-4)GlcNAc(b1-6)[Gal(b1-3)]GalNAc", "procedure,_shortened": "as §1"}, "[3]": {"molecular_target": "Gal(b1-4)GlcNAc(b1-6)[Gal(b1-4)GlcNAc(b1-3)]GalNAc", "procedure,_shortened": "as §1"}, "Gal(b1-4)GlcNAc6P": {"molecular_target": "Gal(b1-4)GlcNAc6P", "procedure,_shortened": "as §1"}, "Gal(b1-6)Gal": {"molecular_target": "Gal(b1-6)Gal", "procedure,_shortened": "as §1"}, "Gal3S(b1-3)GalNAc": {"molecular_target": "Gal3S(b1-3)GalNAc", "procedure,_shortened": "as §1"}, "Gal3S(b1-3)GlcNAc": {"molecular_target": "Gal3S(b1-3)GlcNAc", "procedure,_shortened": "as §1"}, "[4]": {"molecular_target": "Gal3S(b1-3)[Fuc(a1-4)]GlcNAc", "procedure,_shortened": "as §1"}, "Gal3S(b1-4)Glc": {"molecular_target": "Gal3S(b1-4)Glc", "procedure,_shortened": "as §1"}, "Gal3S(b1-4)Glc6S": {"molecular_target": "Gal3S(b1-4)Glc6S", "procedure,_shortened": "as §1"}, "Gal3S(b1-4)GlcNAc": {"molecular_target": "Gal3S(b1-4)GlcNAc", "procedure,_shortened": "as §1"}, "[5]": {"molecular_target": "Gal3S(b1-4)[Fuc(a1-3)]Glc6S", "procedure,_shortened": "as §1"}, "[6]": {"molecular_target": "Gal3S(b1-4)[Fuc(a1-3)]GlcNAc", "procedure,_shortened": "as §1"}, "[7]": {"molecular_target": "Gal3S(b1-4)[Fuc(a1-3)]GlcNAc6S", "procedure,_shortened": "as §1"}, "Gal3S4S(b1-4)GlcNAc": {"molecular_target": "Gal3S4S(b1-4)GlcNAc", "procedure,_shortened": "as §1"}, "Gal3S6S(b1-4)GlcNAc": {"molecular_target": "Gal3S6S(b1-4)GlcNAc", "procedure,_shortened": "as §1"}, "Gal3S6S(b1-4)GlcNAc6S": {"molecular_target": "Gal3S6S(b1-4)GlcNAc6S", "procedure,_shortened": "as §1"}, "Gal4S(b1-4)GlcNAc": {"molecular_target": "Gal4S(b1-4)GlcNAc", "procedure,_shortened": "as §1"}, "Gal4S6S(b1-4)GlcNAc": {"molecular_target": "Gal4S6S(b1-4)GlcNAc", "procedure,_shortened": "as §1"}, "Gal6P(b1-4)GlcNAc": {"molecular_target": "Gal6P(b1-4)GlcNAc", "procedure,_shortened": "as §1"}, "Gal6S(b1-3)GlcNAc": {"molecular_target": "Gal6S(b1-3)GlcNAc", "procedure,_shortened": "as §1"}, "Gal6S(b1-3)GlcNAc6S": {"molecular_target": "Gal6S(b1-3)GlcNAc6S", "procedure,_shortened": "as §1"}, "Gal6S(b1-4)Glc": {"molecular_target": "Gal6S(b1-4)Glc", "procedure,_shortened": "as §1"}, "Gal6S(b1-4)Glc6S": {"molecular_target": "Gal6S(b1-4)Glc6S", "procedure,_shortened": "as §1"}, "Gal6S(b1-4)GlcNAc": {"molecular_target": "Gal6S(b1-4)GlcNAc", "procedure,_shortened": "as §1"}, "Gal6S(b1-4)GlcNAc6S": {"molecular_target": "Gal6S(b1-4)GlcNAc6S", "procedure,_shortened": "as §1"}, "GalNAc(a1-3)Gal": {"molecular_target": "GalNAc(a1-3)Gal", "procedure,_shortened": "as §1"}, "GalNAc(a1-3)GalNAc": {"molecular_target": "GalNAc(a1-3)GalNAc", "procedure,_shortened": "as §1"}, "[8]": {"molecular_target": "GalNAc(a1-3)GalNAc(b1-3)Gal(a1-4)Gal(b1-4)Glc", "procedure,_shortened": "as §1"}, "[9]": {"molecular_target": "GalNAc(a1-3)GalNAc(b1-3)Gal(a1-4)Gal(b1-4)GlcNAc", "procedure,_shortened": "as §1"}, "GalNAc(b1-3)Gal": {"molecular_target": "GalNAc(b1-3)Gal", "procedure,_shortened": "as §1"}, "[10]": {"molecular_target": "GalNAc(b1-3)Gal(a1-4)Gal(b1-4)GlcNAc", "procedure,_shortened": "as §1"}, "[11]": {"molecular_target": "GalNAc(b1-3)Gal(a1-4)Gal(b1-4)GlcNAc(b1-3)Gal(b1-4)Glc", "procedure,_shortened": "as §1"}, "[12]": {"molecular_target": "GalNAc(b1-3)Gal(a1-6)Gal(b1-4)Glc", "procedure,_shortened": "as §1"}, "GalNAc(b1-3)GalNAc": {"molecular_target": "GalNAc(b1-3)GalNAc", "procedure,_shortened": "as §1"}, "GalNAc(b1-3)GlcNAc": {"molecular_target": "GalNAc(b1-3)GlcNAc", "procedure,_shortened": "as §1"}, "GalNAc(b1-4)Gal(b1-4)Glc": {"molecular_target": "GalNAc(b1-4)Gal(b1-4)Glc", "procedure,_shortened": "as §1"}, "GalNAc(b1-4)GlcNAc": {"molecular_target": "GalNAc(b1-4)GlcNAc", "procedure,_shortened": "as §1"}},
  "note": "This is one part of the list.",
  "data": [
    {"binder": "Clec18C (Homo sapiens) (protein) MLHPETSPGRGHLLAVLLALLGTAWAEVWPPQLQEQAPMAGALNRKESFLLLSLHNRLRSWVQPPAADMRRLDWSDSLAQLAQARAALCGTPTPSLASGLWRTLQVGWNMQLLPAGLVSFVEVVSLWFAEGQRYSHAAGECARNATCTHYTQLVWATSSQLGCGRHLCSAGQAAIEAFVCAYSPRGNWEVNGKTIVPYKKGAWCSLCTASVSGCFKAWDHAGGLCEVPRNPCRMSCQNHGRLNISTCHCHCPPGYTGRYCQVRCSLQCVHGRLREEECSCVCDIGYGGAQCATKVHFPFHTCDLRIDGDCFMVSSEADTYYRARMKCQRKGGVLAQIKSQKVQDILAFYLGRLETTNEVIDSDFETRNFWIGLTYKTAKDSFRWATGEHQAFTSFAFGQPDNHGFGNCVELQASAAFNWNNQRCKTRNRYICQFAQEHISRWGPGS", "values": [
      {"measurement": "glycan array binding signal (z-score)", "setting": "[1]", "result": 0.277},
      {"measurement": "glycan array binding signal (z-score)", "setting": "[2]", "result": 0.126},
      {"measurement": "glycan array binding signal (z-score)", "setting": "[3]", "result": -0.181},
      {"measurement": "glycan array binding signal (z-score)", "setting": "Gal(b1-4)GlcNAc6P", "result": 5.02},
      {"measurement": "glycan array binding signal (z-score)", "setting": "Gal(b1-6)Gal", "result": -0.264},
      {"measurement": "glycan array binding signal (z-score)", "setting": "Gal3S(b1-3)GalNAc", "result": -0.042},
      {"measurement": "glycan array binding signal (z-score)", "setting": "Gal3S(b1-3)GlcNAc", "result": -0.492},
      {"measurement": "glycan array binding signal (z-score)", "setting": "[4]", "result": -0.464},
      {"measurement": "glycan array binding signal (z-score)", "setting": "Gal3S(b1-4)Glc", "result": -0.388},
      {"measurement": "glycan array binding signal (z-score)", "setting": "Gal3S(b1-4)Glc6S", "result": -0.387},
      {"measurement": "glycan array binding signal (z-score)", "setting": "Gal3S(b1-4)GlcNAc", "result": -0.019},
      {"measurement": "glycan array binding signal (z-score)", "setting": "[5]", "result": -0.095},
      {"measurement": "glycan array binding signal (z-score)", "setting": "[6]", "result": -0.38},
      {"measurement": "glycan array binding signal (z-score)", "setting": "[7]", "result": -0.116},
      {"measurement": "glycan array binding signal (z-score)", "setting": "Gal3S4S(b1-4)GlcNAc", "result": -0.589},
      {"measurement": "glycan array binding signal (z-score)", "setting": "Gal3S6S(b1-4)GlcNAc", "result": 0.096},
      {"measurement": "glycan array binding signal (z-score)", "setting": "Gal3S6S(b1-4)GlcNAc6S", "result": -0.4},
      {"measurement": "glycan array binding signal (z-score)", "setting": "Gal4S(b1-4)GlcNAc", "result": -0.336},
      {"measurement": "glycan array binding signal (z-score)", "setting": "Gal4S6S(b1-4)GlcNAc", "result": -0.359},
      {"measurement": "glycan array binding signal (z-score)", "setting": "Gal6P(b1-4)GlcNAc", "result": -0.488},
      {"measurement": "glycan array binding signal (z-score)", "setting": "Gal6S(b1-3)GlcNAc", "result": 0.042},
      {"measurement": "glycan array binding signal (z-score)", "setting": "Gal6S(b1-3)GlcNAc6S", "result": -0.553},
      {"measurement": "glycan array binding signal (z-score)", "setting": "Gal6S(b1-4)Glc", "result": 0.907},
      {"measurement": "glycan array binding signal (z-score)", "setting": "Gal6S(b1-4)Glc6S", "result": -0.432},
      {"measurement": "glycan array binding signal (z-score)", "setting": "Gal6S(b1-4)GlcNAc", "result": 0.35},
      {"measurement": "glycan array binding signal (z-score)", "setting": "Gal6S(b1-4)GlcNAc6S", "result": -0.237},
      {"measurement": "glycan array binding signal (z-score)", "setting": "GalNAc(a1-3)Gal", "result": 0.145},
      {"measurement": "glycan array binding signal (z-score)", "setting": "GalNAc(a1-3)GalNAc", "result": 0.214},
      {"measurement": "glycan array binding signal (z-score)", "setting": "[8]", "result": -0.549},
      {"measurement": "glycan array binding signal (z-score)", "setting": "[9]", "result": -0.49},
      {"measurement": "glycan array binding signal (z-score)", "setting": "GalNAc(b1-3)Gal", "result": -0.044},
      {"measurement": "glycan array binding signal (z-score)", "setting": "[10]", "result": -0.15},
      {"measurement": "glycan array binding signal (z-score)", "setting": "[11]", "result": 2.65},
      {"measurement": "glycan array binding signal (z-score)", "setting": "[12]", "result": -0.087},
      {"measurement": "glycan array binding signal (z-score)", "setting": "GalNAc(b1-3)GalNAc", "result": -0.515},
      {"measurement": "glycan array binding signal (z-score)", "setting": "GalNAc(b1-3)GlcNAc", "result": 3.98},
      {"measurement": "glycan array binding signal (z-score)", "setting": "GalNAc(b1-4)Gal(b1-4)Glc", "result": -0.592},
      {"measurement": "glycan array binding signal (z-score)", "setting": "GalNAc(b1-4)GlcNAc", "result": 1.42}
    ]}
  ]
}
